The full ranking holds about 33,000 sequences; the median of “E-score (-0.5 to 0.5)” is about -0.036, and the highest 2% start at about 0.37. The list shows a part of the results.
These sequences were tested against T1, Yer064c (UniProt P40041) (assay: PBM E-score (8-mer binding enrichment) (E-score (-0.5 to 0.5)); higher = stronger / more preferred TF binding; most listed sequences are background and not binding sites). Conditions: protein concentration: 200 nM; construct: GST-full length.
T1 sequence: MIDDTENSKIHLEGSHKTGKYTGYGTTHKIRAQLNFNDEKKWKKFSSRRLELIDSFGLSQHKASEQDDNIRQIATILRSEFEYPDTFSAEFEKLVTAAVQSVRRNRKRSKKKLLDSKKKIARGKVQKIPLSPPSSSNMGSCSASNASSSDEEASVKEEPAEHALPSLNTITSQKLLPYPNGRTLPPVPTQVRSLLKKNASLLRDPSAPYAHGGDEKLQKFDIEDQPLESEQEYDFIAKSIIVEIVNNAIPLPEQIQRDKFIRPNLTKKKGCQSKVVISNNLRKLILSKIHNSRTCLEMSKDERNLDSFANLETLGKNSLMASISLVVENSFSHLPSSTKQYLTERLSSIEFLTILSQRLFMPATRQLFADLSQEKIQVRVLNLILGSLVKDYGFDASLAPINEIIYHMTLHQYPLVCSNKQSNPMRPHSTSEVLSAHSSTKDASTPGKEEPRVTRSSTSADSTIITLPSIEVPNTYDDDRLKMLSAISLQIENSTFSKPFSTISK
Procedure, shortened: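 Masliner-normalised scans of fluorescent anti-GST signal were the basis for scoring. That signal came from GST-tagged yeast transcription factors applied at about 100-200 nM to double-stranded universal all-10-mer Agilent arrays on fresh or once-stripped slides. Each ungapped eight-base word, pooled with its reverse complement, received an E-score from the Universal PBM Analysis Suite.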

Sequence | PBM E-score
AACCCGGG | -0.13
CACGACTC | 0.437
GAACAACC | 0.0303
CGGCACCG | -0.243
AATGCCGC | -0.199
CAAACTTG | -0.189
ATTGTAAG | 0.0138
CAATGCTC | -0.0304
GGATCTGA | -0.0808
ACCCTGAC | 0.158
ATTCGTCA | -0.125
CCTTAGGC | -0.0901
AGTGTGCG | -0.149
AGTATCTA | 0.0526
ACGATTCC | 0.222
ATGGTGTC | 0.0538
GTTATTGA | 0.102
ATGGTATC | -0.0539
CAATGGGA | -0.0963
CGCCTAGA | -0.16
CATAGGCA | -0.203
TCCCCGAA | -0.219

Sequence | PBM E-score
GGTCCTAA | 0.0129
GGGAAGTA | -0.131
CAATCGCA | 0.117
ACGACTCA | 0.477
CCGCTGTA | -0.0877
CGCCCACG | -0.147
GACGCATC | -0.283
ATGGGCCG | -0.177
TTAATTAA | 0.0383
GTCACTTA | 0.235
AAGATTAT | 0.0932
GATTATTA | 0.233
AATTTAGA | 0.18
CCGGGTCC | -0.202
TAATACAA | 0.0585
TTCTACAA | 0.0422
GTTGCAGA | 0.00855
TCCCTTAA | -0.0594
TAGGTATA | -0.123
CCGTATTA | 0.0205
GAATGGAC | -0.0975
AAATATGC | -0.13

Sequence | PBM E-score
CCAACCGC | -0.211
AAATCCCA | -0.203
TCCGCCCA | -0.0784
GGTGGCTA | 0.181
ATAAGCCG | -0.167
CTTAAATC | 0.293
TCAAGTAA | 0.184
GCGTTCAA | -0.00967
CTCGTTCA | -0.0674
TGGCAAAA | 0.0917
CCTAAAAA | -0.0364
ATCCCAGG | -0.318
CCAGTTAC | -0.35
ACGAAGTG | -0.00708
ACCAGACT | 0.0775
ACAATTAT | 0.114
ATTTGTGG | 0.044
ATCAACTG | 0.131
ACAGCCTA | -0.0814
GCCGTTAA | -0.133
AAGAGGTC | -0.098
CTTTGCAC | 0.0676

Sequence | PBM E-score
ACATAGCG | -0.094
GCATCCTA | -0.183
CAGGAGAC | 0.0872
CCCCTATC | -0.133
AGTCCGTA | 0.188
GAAGAGCC | -0.222
ATATAGTG | 0.0402
ACCGCACG | -0.0881
ACTCGCAC | 0.181
AATGTTCC | -0.0194
GTTCACTA | -0.0259
CAATTGCG | -0.0914
CCCGTCGG | -0.058
GCCCCAAC | 0.0476
AGGTCATC | 0.18
AAAGGTTC | -0.25
TCAGTGCA | 0.056
AGAATACG | -0.0667
CTTGGTCC | -0.205
CACAACAG | -0.0343

Reference: the supplement of paper PMC3334620
